The target of this assay is human TRiC/CCT subunit 5 (CCT5), homo-oligomeric complex (human) (UniProt P48643). The experiment in a line: crystal structure; crystallised in complex with 5.0 mM ADP, closed state; sitting-drop vapor diffusion; 0.1 M sodium acetate, 0.04 M citric acid, 0.06 M Bis-Tris propane pH 6.4, 25% (w/v) PEG 400; space group P 4 21 2, 4 subunits per asymmetric unit.

As for “human TRiC/CCT subunit 5 (CCT5), homo-oligomeric complex (a stretch of the chain, sequence not shown) (natural protein; other documents disagree on this pair)”, the stoichiometry N (as a rule, the number of molecules, sites or subunits per partner or assembly) was found to be 16 subunits.

The values above are taken from article PMC5473854, “Structure of the human TRiC/CCT Subunit 5 associated with hereditary sensory neuropathy” (Scientific Reports, 2017).
